IC50 is the fitted dose that halves viability relative to control wells, and lower means more sensitive; where the fit passes the top or lowest dose, that dose stands as a limit. For AUC the same curve is integrated over the 256-fold range of doses and scaled to a fraction; the more sensitive the line, the further below 1. For part of these data: Where the top dose is marked as inferred, it comes from the curve model; the source does not state it. For part of these data: Where an entry number is given, a second screen of the drug exists; the two often differ.
What was measured:
Assay in all cases: Viability of human cancer cell lines after 72 h of drug (GDSC screen)
LFM-A13 = compound: C/C(O)=C(\C#N)C(=O)Nc1cc(Br)ccc1Br [LFM-A13]; details: top dose 16 µM; top dose inferred
Protocol: (§1)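 Human cancer cell lines in 384-well plates, medium with 10% serum, drug for 72 h over a 256-fold dose range (nine 2-fold or five 4-fold steps up to the top dose). Adherent lines were fixed and stained with the nucleic acid dye Syto60, suspension lines read with resazurin; signal relative to control wells, capped at 0 and 100%. One two-parameter sigmoid per drug and line, fitted in a mixed model over all curves with the slope shared within a line.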

TW-37 = compound: CC(C)c1ccccc1Cc1cc(C(=O)Nc2ccc(S(=O)(=O)c3ccccc3C(C)(C)C)cc2)c(O)c(O)c1O [TW-37]; details: top dose 5 µM
Protocol: as §1

Bicalutamide = compound: CC(O)(CS(=O)(=O)c1ccc(F)cc1)C(=O)Nc1ccc(C#N)c(C(F)(F)F)c1 [Bicalutamide]; details: top dose inferred
Protocol: as §1

AUY922 = compound: CCNC(=O)c1noc(-c2cc(C(C)C)c(O)cc2O)c1-c1ccc(CN2CCOCC2)cc1 [AUY922]; details: top dose 0.256 µM; top dose inferred
Protocol: as §1

KIN001-270 = compound: Cc1ccc(Nc2cc(-c3cccc(N4C(=O)c5ccccc5C4=O)c3)ncn2)cc1NS(C)(=O)=O [KIN001-270]; details: top dose 20 µM; top dose inferred
Protocol: as §1

Nilotinib = compound: Cc1cn(-c2cc(NC(=O)c3ccc(C)c(Nc4nccc(-c5cccnc5)n4)c3)cc(C(F)(F)F)c2)cn1 [Nilotinib]; details: top dose 2 µM
Protocol: as §1

GNF-2 = compound: NC(=O)c1cccc(-c2cc(Nc3ccc(OC(F)(F)F)cc3)ncn2)c1 [GNF-2]; details: top dose 1.28 µM; top dose inferred
Protocol: as §1

Gemcitabine = compound: Nc1ccn([C@@H]2O[C@H](CO)[C@@H](O)C2(F)F)c(=O)n1 [Gemcitabine]; details: top dose 1.024 µM
Protocol: as §1

T0901317 = compound: O=S(=O)(c1ccccc1)N(CC(F)(F)F)c1ccc(C(O)(C(F)(F)F)C(F)(F)F)cc1 [T0901317]; details: top dose 10.24 µM; top dose inferred
Protocol: as §1

MP470 = compound: S=C(NCc1ccc2c(c1)OCO2)N1CCN(c2ncnc3c2oc2ccccc23)CC1 [MP470]; details: top dose 20 µM; top dose inferred
Protocol: as §1

[1] = top dose 1.024 µM, screen: GDSC drug entry 150
[2] = top dose 10 µM, screen: GDSC drug entry 1502

Row | Cell Line | AUC (LFM-A13) | IC50 (LFM-A13) [µM] | AUC (TW-37) | IC50 (TW-37) [µM] | AUC (Bicalutamide; [1]) | IC50 (Bicalutamide; [1]) [µM] | AUC (Bicalutamide; [2]) | IC50 (Bicalutamide; [2]) [µM] | AUC (AUY922) | IC50 (AUY922) [µM] | AUC (KIN001-270) | IC50 (KIN001-270) [µM] | AUC (Nilotinib) | IC50 (Nilotinib) [µM] | AUC (GNF-2) | IC50 (GNF-2) [µM] | AUC (Gemcitabine) | IC50 (Gemcitabine) [µM] | AUC (T0901317) | IC50 (T0901317) [µM] | AUC (MP470) | IC50 (MP470) [µM]
1 | P31-FUJ (acute myeloid leukaemia, suspension) | 0.996 | > 16 | 0.834 | 2.24 | 0.996 | > 1.02 | 0.996 | > 10 | 0.928 | 0.248 | 0.996 | > 20 | 0.995 | > 2 | 0.996 | > 1.28 | 0.993 | > 1.02 | 0.967 | > 10.2 | 0.877 | 12.2
2 | P32-ISH (Burkitt lymphoma, suspension) | 0.958 | > 16 | 0.515 | 0.34 | 0.993 | > 1.02 | 0.994 | > 10 | 0.55 | 0.0212 | 0.856 | 10.2 | 0.974 | > 2 | 0.992 | > 1.28 | 0.098 | 0.00554 | 0.947 | > 10.2 | 0.95 | > 20
3 | PF-382 (T-cell lymphoblastic leukaemia, suspension) | 0.979 | > 16 | 0.669 | 0.863 | 0.985 | > 1.02 | 0.99 | > 10 | 0.559 | 0.0227 | 0.955 | > 20 | 0.991 | > 2 | 0.991 | > 1.28 | 0.338 | 0.0242 | 0.938 | > 10.2 | 0.968 | > 20
4 | PL-21 (acute myeloid leukaemia, suspension) | 0.943 | > 16 | 0.774 | 2.29 | 0.981 | > 1.02 | 0.966 | > 10 | 0.591 | 0.0296 | 0.96 | > 20 | 0.957 | > 2 | 0.969 | > 1.28 | 0.717 | 0.295 | 0.925 | > 10.2 | 0.892 | > 20
5 | PSN1 (pancreas, adherent) | 0.975 | > 16 | 0.45 | 0.234 | 0.991 | > 1.02 | 0.991 | > 10 | 0.276 | 0.00419 | 0.96 | > 20 | 0.985 | > 2 | 0.989 | > 1.28 | 0.022 | < 0.004 | 0.974 | > 10.2 | 0.951 | > 20
6 | QIMR-WIL (acute myeloid leukaemia, suspension) | 0.957 | > 16 | 0.407 | 0.175 | 0.985 | > 1.02 | 0.983 | > 10 | 0.432 | 0.0105 | 0.945 | > 20 | 0.986 | > 2 | 0.985 | > 1.28 | 0.035 | < 0.004 | 0.942 | > 10.2 | 0.578 | 2.03
7 | RCC10RGB (kidney, adherent) | 0.855 | > 16 | 0.873 | > 5 | 0.963 | > 1.02 | 0.952 | > 10 | 0.848 | > 0.256 | 0.955 | > 20 | 0.964 | > 2 | 0.885 | > 1.28 | 0.638 | 0.223 | 0.966 | > 10.2 | 0.92 | > 20
8 | REH (B-cell leukaemia, suspension) | 0.97 | > 16 | 0.662 | 0.861 | 0.983 | > 1.02 | 0.963 | > 10 | 0.456 | 0.0122 | 0.955 | > 20 | 0.969 | > 2 | 0.942 | > 1.28 | 0.25 | 0.0127 | 0.955 | > 10.2 | 0.905 | > 20
9 | RF-48 (stomach, adherent) | 0.922 | > 16 | 0.714 | 1.37 | 0.985 | > 1.02 | 0.971 | > 10 | 0.499 | 0.0159 | 0.898 | > 20 | 0.983 | > 2 | 0.98 | > 1.28 | 0.203 | 0.00744 | 0.971 | > 10.2 | 0.926 | > 20
10 | RH-1 (rhabdomyosarcoma, adherent) | 0.984 | > 16 | 0.465 | 0.255 | 0.991 | > 1.02 | 0.962 | > 10 | 0.691 | 0.0494 | 0.876 | 14.3 | 0.972 | > 2 | 0.991 | > 1.28 | 0.113 | 0.00502 | 0.972 | > 10.2 | 0.864 | 13
11 | RKO (large intestine, adherent) | 0.988 | > 16 | 0.264 | 0.0703 | 0.988 | > 1.02 | 0.984 | > 10 | 0.396 | 0.00848 | 0.953 | > 20 | 0.951 | > 2 | 0.988 | > 1.28 | 0.073 | < 0.004 | 0.985 | > 10.2 | 0.842 | 12.6
12 | RL (B-cell lymphoma, suspension) | 0.989 | > 16 | 0.42 | 0.192 | 0.99 | > 1.02 | 0.937 | > 10 | 0.855 | 0.179 | 0.99 | > 20 | 0.99 | > 2 | 0.979 | > 1.28 | 0.99 | > 1.02 | 0.979 | > 10.2 | 0.876 | 17.1
